# In all, about 340,000 compounds went through this assay and about 6,900 (2%) were called active. Cut-off read from the data, not from the text of the source: active = inhibition above about 30%; inactive = below that, where a call was filed. The list shows a part of the results, in another mix than the full data. The source gives no active or inactive call for entries shown without one.
# Biological target: D(2) dopamine receptor (Homo sapiens) (UniProt P14416)
# Experiment: HTS Assay for Allosteric Antagonists of the Human D2 Dopamine Receptor: Primary Screen for Antagonists; note: 0% is about no effect
# Conditions: HEK293 TREx D2 cells, calcium flux, dopamine EC80; at 10 µM; stronger effect = higher value
# Method in brief: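 Read-out: kinetic calcium fluorescence (1 cycle/s) in inducible HEK293 T-REx D2 cells after an EC80 dopamine addition that followed 180 s compound preincubation. Loss of the dopamine response indicates antagonism.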
# Sequence of UniProt P14416 (P14416 whole entry, looked up): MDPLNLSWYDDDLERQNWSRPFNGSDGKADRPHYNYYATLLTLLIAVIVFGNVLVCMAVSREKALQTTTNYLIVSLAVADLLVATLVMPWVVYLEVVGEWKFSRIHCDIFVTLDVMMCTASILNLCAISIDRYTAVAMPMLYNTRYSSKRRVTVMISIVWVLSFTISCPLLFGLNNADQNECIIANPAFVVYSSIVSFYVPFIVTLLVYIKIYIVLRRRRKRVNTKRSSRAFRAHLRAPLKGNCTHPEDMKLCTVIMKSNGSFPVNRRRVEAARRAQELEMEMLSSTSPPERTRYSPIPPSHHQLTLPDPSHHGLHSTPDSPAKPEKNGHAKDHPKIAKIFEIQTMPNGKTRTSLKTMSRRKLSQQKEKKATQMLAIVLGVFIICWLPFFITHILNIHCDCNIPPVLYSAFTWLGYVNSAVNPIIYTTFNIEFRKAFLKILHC
row,SMILES,inhibition
1,COc1ccc(C(=O)NCC(c2ccc3c(c2)OCO3)N2CCN(C)CC2)cc1 (configuration not stated),-12.5%
2,COc1cc(OC)c(N(C)C(=O)c2c(C)oc3ncnc(N4CCCCC4)c23)cc1Cl,8%
3,CCOc1ccc(CCNC(=O)c2nnc(Cc3ccc(Cl)cc3Cl)o2)cc1OCC,5.33%
4,COc1ccccc1C(=O)NCCC(=O)NC(C)c1ccc(-n2ccnc2)cc1 (configuration not stated),active: 32.7%
5,COc1cc(OC)c(NC(=O)N2CCc3c([nH]c4ccccc34)C2c2ccccc2F)cc1Cl (configuration not stated),5.27%
6,O=C(Nc1ccccc1F)c1ccc(Cn2nc(N3CCN(c4ccccc4)CC3)ccc2=O)o1,5.19%
7,Cn1cc(/C=N/NC(=O)c2cc3cc(Br)ccc3o2)c2ccccc21,active: 65.6%
8,CCc1cc(C(=O)Nc2c(C)nn(Cc3ccccc3Cl)c2C)no1,2.48%
9,O=C(CCC(=O)N1CC2CCCN2c2ccccc21)NCc1ccc(F)cc1 (configuration not stated),17.3%
10,Cc1cc(C)c(NC(=O)CN2C(=O)c3cccnc3Sc3ccccc32)c(C)c1,14.4%
11,COc1ccc(-c2nc(CSCC(=O)N3CCc4ccccc4C3)c(C)o2)cc1OC,active: 45.3%
12,CCc1ccc(-n2c(=O)c3sc4ccccc4c3n(CC(=O)N(CC)Cc3ccccc3)c2=O)cc1,4.37%
13,Cc1ccc2sc(-c3ccc(N)cc3)nc2c1,-28.4%
14,CCOC(=O)c1c(C)[nH]c(C)c1S(=O)(=O)N1CCCC(C(=O)Nc2cc(C)ccc2C)C1 (configuration not stated),-0.158%
15,CCC(=O)N1CCc2cc(CNC(=O)c3ccccc3C)ccc21,3.59%
16,CCCCNC(=O)CSc1nc2nc(C)c(Cc3c(F)cccc3Cl)c(C)n2n1,10.8%
17,CC(=O)c1ccc(NC(=O)COc2ccccc2-c2nc(-c3ccc(C)cc3)no2)cc1,-5.12%
18,Cc1ccc(OCC(=O)Nc2ccccc2C(=O)OCc2cc(=O)n3ccsc3n2)cc1,7.56%
19,O=C(C1CCC(Cn2c(=O)c3sccc3n(Cc3ccccc3)c2=O)CC1)N1CCOCC1 (configuration not stated),-14.6%
20,O=C(NC1CC(=O)N(c2cccc(F)c2)C1)c1ccc2c(c1)OCO2 (configuration not stated),-25.7%
21,O=C(Nc1cc2c(cc1C(=O)c1ccccc1Br)OCCO2)c1ccccc1,-10.3%
22,Cc1ccc(Cl)cc1N1CCN(C(=O)c2cnn(C)c2C2CCN(C(=O)OC(C)(C)C)CC2)CC1,8.29%
23,Cc1ccc(-c2nnc(Nc3ccccc3O)c3ccccc23)cc1,5.88%
24,CSc1ccc(CNC(=O)Cn2nc(N3CCN(c4ccccc4)CC3)ccc2=O)cc1,-5.41%
25,CC(c1n[nH]c(=S)n1-c1ccccc1)N1CCCCC1 (configuration not stated),active: 70.7%

row,SMILES,inhibition
1,COc1cccc(NC(=O)CSc2nnc(-c3cccc(OC)c3)o2)c1,-22.2%
2,Cc1ccc(NC(=O)CSc2ncc(-c3ccccc3)[nH]2)cc1,-7.68%
3,COc1ccc(-[n+]2c(C)cc(/C=C3\Sc4ccccc4N3C)cc2C)cc1,active: 47.7%
4,COc1ccc(S(=O)(=O)c2c(Nc3ccccc3F)sc(C(=O)c3cccc(OC)c3)c2N)cc1,6.72%
5,CCc1ccc(NC(=O)NCCc2c(C)nn(C)c2C)cc1,-7.28%
6,CCc1ccc(NC(=O)CC2C(=O)NCCN2C(=O)c2ccc(F)cc2)cc1 (configuration not stated),2.92%
7,CCOc1ccccc1CNC(=O)c1ccc(CS(=O)Cc2cccc(Cl)c2)o1 (configuration not stated),-0.963%
8,COc1cccc(C2CC(=O)Nc3c2ccc(C)c3C)c1OC (configuration not stated),-11.3%
9,Cc1cccc(NC(=O)CSc2nnc(NC(=O)Nc3ccccc3)s2)c1C,20.2%
10,CSc1ccc(C2C(C(=O)Nc3ccccc3)=C(C)Nc3nc4ccccc4n32)cc1 (configuration not stated),-1.46%
11,CCN(CC)c1ccc(CNCCCSc2nnnn2C)cc1,10.5%
12,COc1ccc(CNC(=O)c2cc(Nc3ccccc3C)nc3ccccc23)cc1,7.96%
13,Cc1oc2ncn(C)c(=O)c2c1C(=O)N1CCN(c2cccc(C(F)(F)F)c2)CC1,4.04%
14,COCCNc1nc2c(c(=O)n(C)c(=O)n2C)n1Cc1c(F)cccc1Cl,-13.4%
15,CCOc1ccc(CN2C(=O)c3ccccc3Sc3ccc(C(=O)NCc4ccco4)cc32)cc1,-2.67%
16,COc1ccc(Cl)cc1NC(=O)CSc1cn(CC(=O)N2CCCCC2)c2ccccc12,-4.04%
17,CCCCN(C)CCCNC(=O)C1CCN(S(=O)(=O)CCC)CC1,19.2%
18,COc1cc(C2C(=O)N(C3CCCCC3)CC(=O)N2CCc2ccccc2)ccc1OC(C)C (configuration not stated),-5.13%
19,COc1ccc(-c2cc(C(F)(F)F)nc(SCCC(=O)Nc3ccc(NC(C)=O)cc3)n2)cc1,-2.26%
20,O=C(Nc1ccccc1C(F)(F)F)c1ncoc1-c1ccco1,-5.05%
21,CCN(CC)C(=O)NC1CC2CCCC(C1)N2Cc1ccccc1 (configuration not stated),active: 91.9%
22,Cc1nn(-c2ccccc2)c(OC(=O)c2ccccc2Br)c1S(=O)(=O)c1ccccc1,3.47%
23,COc1ccccc1CNc1nc2ccc(C)cc2n2nnnc12,-5.54%
24,Cc1cc(NC(=O)c2ccc3c(c2)N(Cc2cccc(Cl)c2)C(=O)c2ccccc2S3(=O)=O)ccc1Br,-22.1%
25,O=C(CS(=O)(=O)c1cccc2nsnc12)N1CCN(c2ccccc2F)CC1,9.32%

row,SMILES,inhibition
1,O=C(Cc1ccccc1)NN1C(=O)/C(=C/c2ccccc2C(=O)O)SC1=S,active: 30.7%
2,O=C1CC(c2c(Cl)cccc2Cl)c2c(ccc3ccccc23)N1 (configuration not stated),6.1%
3,CC(C(=O)Nc1cccc([N+](=O)[O-])c1)N1CCN(C/C=C/c2ccccc2)CC1 (configuration not stated),active: 47%
4,CC1=C(C(=O)Nc2ccccc2Cl)C(c2cccc(O)c2)n2ncnc2N1 (configuration not stated),-19.8%
5,CCc1ccccc1NC(=O)CCCSc1nc(-c2ccco2)cc(C(F)(F)F)n1,11.5%
6,COc1ccc(NC(=O)C2=CC(c3ccco3)=NS(=O)(=O)N2C)cc1OC,11.8%
7,CCCN(C(=O)c1cn(C)c(=O)c2cc(OC)c(OC)cc12)c1ccc(CC)cc1,3.06%
8,CCN(c1ccccc1)S(=O)(=O)c1nnc(NC(=O)c2ccccc2OC)s1,-9.86%
9,CCOCCc1nn2c(=O)cc(COC(=O)c3ccc(NC(=O)C4CCCCC4)cc3)nc2s1,2.2%
10,COc1ccc(S(=O)(=O)c2c(Nc3cccc(C)c3C)sc(C(=O)c3ccccc3)c2N)cc1,3.13%
11,COc1ccc(-c2nc(SCC(=O)NC(C)CCc3ccccc3)n[nH]2)cc1 (configuration not stated),-18.2%
12,CCOC(=O)c1c(C)oc2nc(C)nc(NCCc3ccc(OCC)c(OCC)c3)c12,-9.91%
13,COc1ccc(N2CCN(c3ncnc4c3cnn4-c3ccc(F)cc3)CC2)cc1,-8.02%
14,CCN(c1ccccc1)S(=O)(=O)c1c(C)nc2scc(C)n2c1=O,-22.7%
15,COC(=O)c1ccc(NC(=O)CSc2cn(CC(=O)N3CCCCC3)c3ccccc23)cc1,9.3%
16,CC1CCN(S(=O)(=O)c2ccc3c(c2)c(=O)c(C(=O)N2CCN(c4cccc(Cl)c4)CC2)cn3C)CC1,18%
17,O=c1c2cc3c(cc2nc2sc(Nc4ccccc4)nn12)OCO3,16.7%
18,COc1ccc(NC(=O)CN2CCN(CC(=O)Nc3ccccc3F)CC2)c(OC)c1,8.02%
19,O=C(Cn1cncn1)N/N=C/c1cc([N+](=O)[O-])ccc1O,active: 51.9%
20,CCCCC(=O)Nc1c(C(=O)N2CCN(c3ccccc3F)CC2)oc2ccccc12,6.01%
21,CCCOC(=O)c1cccc(NC(=O)c2c(-c3ccccc3Cl)noc2C)c1,-5.97%
22,O=C(Cn1nc(-c2ccc(Cl)cc2)c2ccccc2c1=O)Nc1cccc(Br)c1,15.6%
23,CC(C)[C@H](NC(=O)N1CCn2c1nc1ccccc12)C(=O)N[C@H](C(=O)O)c1ccccc1,active: 58%
24,Cc1ccccc1Cn1c(COc2ccc(Cl)cc2)nc2ccccc21,-0.147%
25,Cc1nc2ccc(S(=O)(=O)N(C)CC(=O)Nc3ccc(C(C)C)cc3)cc2s1,2.75%

row,SMILES,inhibition
1,Cc1cccc(C2CN(C)CCc3c2cc(O)c(O)c3Cl)c1 (configuration not stated),active: 79.2%
2,COc1ccc(CNC(=O)C2CCN(c3nnc(-n4c(C)ccc4C)s3)CC2)c(OC)c1,-0.944%
3,O=C(Nc1cccc(F)c1)C1CCCN(S(=O)(=O)c2cccc3cccnc23)C1 (configuration not stated),-24.7%
4,COc1ccc(N(CC(=O)Nc2cc(C)cc(C)c2)S(=O)(=O)c2ccccc2[N+](=O)[O-])c(OC)c1,active: 53.4%
5,COc1ccc(CNS(=O)(=O)c2cc3c(cc2Cl)N(C(C)=O)CCO3)cc1,-0.275%
6,COc1cc(NC(=O)CN2CCN(S(=O)(=O)c3ccc(Br)cc3)CC2)cc(OC)c1,-12.1%
7,Cc1ccc(Nc2cc(C(=O)NCCc3ccccc3)c3ccccc3n2)c(C)c1,9.27%
8,COCCSc1ccccc1C(=O)NCCCn1ccnc1,active: 38.8%
9,COc1ccc(NC(=O)CSc2nc(-c3cc(OC)c(OC)c(OC)c3)[nH]c2-c2ccc(F)cc2)cc1,18.8%
10,CCC1CN(C(=O)N2CCC(C(=O)N3CCN(c4ccccc4F)CC3)CC2)c2ccccc2O1 (configuration not stated),16.4%
11,CCC(Sc1nc2ncccc2o1)C(=O)Nc1ccc(OC)c(OC)c1 (configuration not stated),-1.59%
12,COc1ccc(C2CC(=O)c3cc(-c4nc(-c5cccc(Cl)c5)cs4)c(=O)[nH]c3C2)cc1 (configuration not stated),-1%
13,CC(C)Cc1ccc(C(C)C(=O)Nc2ccc(O)cc2)cc1 (configuration not stated),active: 38.8%
14,CSc1oc(-c2cccs2)nc1S(=O)(=O)c1ccc(Br)cc1,-14.9%
15,O=S(=O)(c1ccc(Cl)cc1Cl)n1ccnc1,-4.82%
16,CCOc1ccccc1N(C)C(=O)c1c2c(nc3ccccc13)C(=O)N(C1CCCCC1)C2,12.8%
17,Cc1ccc(C)c(Cn2c3ccccc3c3cnn(CC(=O)NCCc4ccccc4)c(=O)c32)c1,16.8%
18,Cc1ccc2c(c1)c1c3n2CCN(C(=O)c2cccc(C(F)(F)F)c2)C3CCC1 (configuration not stated),20%
19,CCc1cccc(C)c1Nc1c(-c2ccsc2)nc2ncccn12,6.83%
20,COc1ccc(N2CCN(Cc3nnc(-c4ccc5c(c4)OCO5)o3)CC2)cc1,-12.3%
21,Cc1ccc(-n2nc(C)c3nc(CCC(=O)Nc4cccc(F)c4)c(=O)n(C)c32)cc1,3.2%
22,Clc1ccc(-c2noc(-c3cccnc3NCc3ccco3)n2)cc1,26.5%
